Laboratory results reported in patent EP0449195B1, “Aminobenzene compounds, their production and use” (Takeda Chemical Industries, Ltd., priority 1990, dated 1991).
Counter-ions that a name gives are not always drawn. The name of at least one read-out is uncertain.

Each molecule was assayed on N18-RE-105 cells (assay: Protective activity to glutamic acid-induced necrocytosis in N18-RE-105 cells (cell lethal ratio from LDH activity)). Details: glutamic acid (10 mM), cultivation 24 hours after addition, LDH activity in cells and medium, read-out: IC₅₀ (minimum concentrations for depressing cell lethal ratio to not more than 50%), Effect on glutamic acid cytotoxicity (cell lethal ratio).
Assay type: cell-based
Experimental: When a high concentration of glutamic acid (1 to 10 mM) is added to N18-RE-105 cells, neocrocytosis caused by oxidative stress due to inhibition of incorporation of cystine into cells is observed [Neuron 2, 1547 (1989); J. Pharmacol. Exp. Ther. 250, 1132 (1989)].
Activity of various compounds against this glutamic acid-induced necrocytosis was studied. About 10,000 cells were inoculated into a culture dish of 35 mm in diameter containing DMEM medium (1 ml). After cultivation for 24 hours, glutamic acid and a compound to be tested were added. After the medium was changed to DMEM mediums containing the compound in various concentrations and then glutamic acid (10 mM) was added. After addition of glutamic acid, cultivation was further continued for 24 hours. Then, surviving cells were collected and […] activity contained in the cells and medium was determined. A cell lethal ratio (%) was calculated according to the following formula: Cell lethal ratio (%) =(LDH activity in medium)/(LDH activity in cells + LDH activity in medium)x 100 [formula] Regarding the typical compounds of the present invention, minimum concentrations for depressing cell lethal ratio to not more than 50% (IC₅₀) is shown in Table 9.
`CCCCCCNc1ccc(OC2CCNCC2)c(C)c1` [Example 24] was tested, and the IC50 was 2.5 nM. In the case of `CCCCCCCNc1ccc(OC2CCNCC2)cc1` [Example 44, 4-(4-heptylaminophenyloxy)piperidine], the IC50 is reported as 8 nM. `c1cc(N2CCCC2)ccc1OCC1CCNCC1` [Example 16, 4-[(4-Pyrrolidinophenyloxy)methyl]piperidine fumarate] showed an IC50 of 0.8 nM. Work on `CCCCCCCCCCNc1ccc(OC2CCNCC2)cc1C` [Example 26, 4-(4-Decanylamino-3-methylphenyloxy)piperidine fumarate] yielded an IC50 of 1.6 nM. In the case of `CCCCCNc1ccc(OC2CCNCC2)cc1` [Example 43, 4-(4-Pentylaminophenyloxy)piperidine fumarate], the IC50 is reported as 10 nM. `CCCCCCNc1ccc(OC2CCNCC2)cc1C` [Example 27, 4-4-(Hexylamino-3-methylphenyloxy)piperidine fumarate] showed an IC50 of 10 nM. Molecule `C(=C\c1ccccc1)/CNc1ccc(OC2CCNCC2)cc1` [Example 49, 4-[4-(3-phenyl-2-propenylamino)phenyloxy]piperidine] has an IC50 of 6.4 nM. `c1cc(N2CCCC2)ccc1OC1CCNCC1` [Example 5, 4-(4-Pyrrolidinophenyloxy)piperidine fumarate] gave an IC50 of 300 nM. With `CCCCCCCCCNc1ccc(OC2CCNCC2)cc1` [Example 46, 4-(4-nonylaminophenyloxy)piperidine] the IC50 was 1.1 nM. For `CN(C)c1ccc(OC2CCNCC2)cc1` [Example 7, 4-(4-Dimethylaminophenyloxy)piperidine fumarate], the IC50 was 3000 nM. `CC(C)(C)OC(=O)N1CCC(COc2ccc(N3CCCC3)cc2)CC1` [Example 15, 1-tert-Butyloxycarbonyl-4-[(4-pyrrolidinophenyloxy)methyl]piperidine] gave an IC50 of 10 nM.
